According to the supplement of paper PMC11876631:
Substitutions are numbered along the chain they refer to. Names may count otherwise. ± gives the standard deviation of the averaged measurements. Laboratory Escherichia coli strains with one amino-acid change in an essential protein, pooled on minimal glucose agar with carbenicillin or gentamicin at twice the control MIC (plus kanamycin and chloramphenicol for the plasmids), 48 h. Fold change of barcode share against drug-free plates; higher = less susceptible. Active = above 20 in both replicates (the paper's putatively resistant). '<' = one read or none on drug, '>' = one read or none on a drug-free plate. Shares are relative, so most strains fall below 1 when a few take over. Listed are strains with at least 15 reads on both drug-free plates, and hits; most hits rest on fewer reference reads. Replicate rank correlation about 0.5. Edits are read from barcodes.

Molecular target: Escherichia coli (laboratory strain)
Assay: barcode share on antibiotic plates over drug-free plates; higher = less susceptible
Procedure: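 A pool of E. coli strains, each edited to carry one amino-acid change in an essential protein, was grown for 48 h on minimal glucose agar with or without antibiotic; strain barcodes were sequenced; mean of two replicates.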

[1] = antibiotic: carbenicillin, 2× MIC (3.1 µg/mL)
[2] = antibiotic: gentamicin, 2× MIC (MIC 0.45 µg/mL)

B1: dapD V111A (protein)
chain: MQQLQNIIETAFERRAEITPANADTVTREAVNQVIALLDSGALRVAEKIDGQWVTHQWLKKAVLLSFRINDNQVIEGAESRYFDKVPMKFADYDEARFQKEGFRVVPPAAARQGAFIARNTVLMPSYVNIGAYVDEGTMVDTWATVGSCAQIGKNVHLSGGVGIGGVLEPLQANPTIIEDNCFIGARSEVVEGVIVEEGSVISMGVYIGQSTRIYDRETGEIHYGRVPAGSVVVSGNLPSKDGKYSLYCAVIVKKVDAKTRGKVGINELLRTID
fold change of barcode share [1]: 0.486 ± 0.086
fold change of barcode share [2]: 0.00494 ± 0.0022

B2: dapD V111Q (protein)
chain: B1 chain with A111Q
fold change of barcode share [1]: 8.72 ± 2.8

B3: dapE M107A (protein)
chain: MSCPVIELTQQLIRRPSLSPDDAGCQALLIERLQAIGFTVERMDFADTQNFWAWRGQGETLAFAGHTDVVPPGDADRWINPPFEPTIRDGMLFGRGAADMKGSLAAAVVAAERFVAQHPNHTGRLAFLITSDEEASAHNGTVKVVEALMARNERLDYCLVGEPSSIEVVGDVVKNGRRGSLTCNLTIHGVQGHVAYPHLADNPVHRAAPFLNELVAIEWDQGNEFFPATSMQIANIQAGTGSNNVIPGELFVQFNFRFSTELTDEMIKAQVLALLEKHQLRYTVDWWLSGQPFLTARGKLVDAVVNAVEHYNEIKPQLLTTGGTSDGRFIARMGAQVVELGPVNATIHKINECVNAADLQLLARMYQRIMEQLVA
fold change of barcode share [1]: 3.52 ± 1.1
fold change of barcode share [2]: 0.0104 ± 0.0056

B4: dapE M107W (protein)
chain: B3 chain with A107W
fold change of barcode share [1]: 0.372 ± 0.086
fold change of barcode share [2]: 0.00487 ± 0.0039

B5: dapE M107Q (protein)
chain: B3 chain with A107Q
fold change of barcode share [1]: 0.432 ± 0.059
fold change of barcode share [2]: 0.328 ± 0.46

B6: dapE M365A (protein)
chain: B3 chain with A107M, M365A
fold change of barcode share [1]: 0.181 ± 0.14
fold change of barcode share [2]: < 0.0101

B7: dapE M365W (protein)
chain: B3 chain with A107M, M365W
fold change of barcode share [1]: 0.213 ± 0.11
fold change of barcode share [2]: < 0.00699

B8: dapE M365Q (protein)
chain: B3 chain with A107M, M365Q
fold change of barcode share [1]: 0.197 ± 0.022
fold change of barcode share [2]: < 0.00453

B9: dapE L92A (protein)
chain: B3 chain with L92A, A107M
fold change of barcode share [1]: 0.561 ± 0.38
fold change of barcode share [2]: < 0.012

B10: dapE L92Q (protein)
chain: B3 chain with L92Q, A107M
fold change of barcode share [1]: 1.12 ± 0.93

B11: dapE L159A (protein)
chain: B3 chain with A107M, L159A
fold change of barcode share [1]: 0.398 ± 0.2

B12: def I131A (protein)
chain: MSVLQVLHIPDERLRKVAKPVEEVNAEIQRIVDDMFETMYAEEGIGLAATQVDIHQRIIVIDVSENRDERLVLINPELLEKSGETGIEEGCLSIPEQRALVPRAEKVKIRALDRDGKPFELEADGLLAICAQHEMDHLVGKLFMDYLSPLKQQRIRQKVEKLDRLKARA
fold change of barcode share [1]: 0.276 ± 0.055
fold change of barcode share [2]: 0.0142 ± 0.0022

B13: der V130A (protein)
chain: MVPVVALVGRPNVGKSTLFNRLTRTRDALVADFPGLTRDRKYGRAEIEGREFICIDTGGIDGTEDGVETRMAEQSLLAIEEADVVLFMVDARAGLMPADEAIAKHLRSREKPTFLVANKTDGLDPDQAVADFYSLGLGEIYPIAASHGRGVLSLLEHVLLPWMEDLAPQEEVDEDAEYWAQFEAEENGEEEEEDDFDPQSLPIKLAIVGRPNVGKSTLTNRILGEERVVVYDMPGTTRDSIYIPMERDGREYVLIDTAGVRKRGKITDAVEKFSVIKTLQAIEDANVVMLVIDAREGISDQDLSLLGFILNSGRSLVIVVNKWDGLSQEVKEQVKETLDFRLGFIDFARVHFISALHGSGVGNLFESVREAYDSSTRRVGTSMLTRIMTMAVEDHQPPLVRGRRVKLKYAHAGGYNPPIVVIHGNQVKDLPDSYKRYLMNYFRKSLDVMGSPIRIQFKEGENPYANKRNTLTPTQMRKRKRLMKHIKKNK
fold change of barcode share [1]: 0.359 ± 0.22
fold change of barcode share [2]: 0.0583 ± 0.073
